Whole data set: some 2,700 sequences, median “arbitrary fluorescence units” near 4,100, cut for the highest 2% near 54,000. The list shows a part of the results.

The text below walks through data of the supplement of paper PMC10681739.

This experiment addresses T1, ETS1 (UniProt P14921).
T1 sequence: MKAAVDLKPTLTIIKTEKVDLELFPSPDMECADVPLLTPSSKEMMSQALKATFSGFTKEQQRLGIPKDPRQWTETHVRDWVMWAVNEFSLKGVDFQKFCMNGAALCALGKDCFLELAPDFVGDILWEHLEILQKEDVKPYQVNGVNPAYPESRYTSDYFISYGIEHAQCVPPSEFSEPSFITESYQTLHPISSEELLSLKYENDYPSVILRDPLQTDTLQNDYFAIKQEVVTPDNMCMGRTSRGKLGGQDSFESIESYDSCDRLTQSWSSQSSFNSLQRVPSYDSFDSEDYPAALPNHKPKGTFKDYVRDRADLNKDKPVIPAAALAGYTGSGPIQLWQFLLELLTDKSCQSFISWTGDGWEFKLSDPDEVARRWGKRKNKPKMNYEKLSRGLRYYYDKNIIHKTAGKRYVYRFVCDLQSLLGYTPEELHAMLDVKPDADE
Kind of experiment: ETS1 binding intensity (PBM fluorescence) (arbitrary fluorescence units); higher = stronger binding. As to conditions: ETS1 concentration 10 nM. On the procedure: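 gcPBM on wild-type 36-bp genomic probes with two neighbouring ETS1 sites (4-24 bp apart). Recombinant human ETS1 (10 nM) was detected with anti-ETS1 antibody fluorescence. Values are medians over 3 replicate spots. The probes sit in constant array flanks that are not printed.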
With CGTCACACAGGAAGCTGCAGGGCTTTCCTGCGGCAT, the ETS1 binding intensity stood at 3470.
With TTCCCCTTCCTAGGCCGCCCGGGCCACTTCCTGCGG, the ETS1 binding intensity was 1180.
Turning to AATCTAATTCCGCCACCGATCTGACAGGAAGCAGAG, the ETS1 binding intensity came out at 451.
GGCCGCGCTTCCTTCGCTACAAAAAGGAAGCACATC: the ETS1 binding intensity stood at 1760.
In turn, TTAGGAAATGTTGCTTCCTTTCCCACCACCTTCTGT came in with an ETS1 binding intensity of 649.
On to TCAGAGAACCTTCCGGCGCCTGTTTCCTGGCAGTGG, for which the ETS1 binding intensity was determined as 4190.
Sequence TTCTGGGTTTCCTGAGCTGCAAAGCATCCTGCTCTC yielded an ETS1 binding intensity of 1990.
The sequence TGAAGCCATCCGGTTGTGGTTATTTGTTCCGGCTGC showed an ETS1 binding intensity of 15200.
In turn, GCTCCAGGAAAATGACTAATATCAGATTTCCTGTCA registered an ETS1 binding intensity of 1250.
Next, ACCTCCAGGAAGCGAGAATGCAGAGTTTCCTCTGTG: 816.
The sequence GAGGCCCGGGAAATAGCCGCCGCCGGATGGGCGCTT gave an ETS1 binding intensity of 350.
The result for AGGAAAAAACCGGAAGCAAACCGGAAAGAGTGTGCC reads 17900; that for CCTGGGGAGAGGAAGCGGGGGCAGGAAAAGGCCGAC, 898.
Next, GTGAGCAGGATGCCTGGGTCTCCAGTTCCTGCCAGT: 436.
Turning to GCCTGCCATGTATCCGGTGCCTTCCTGGGTGTGCCA, the ETS1 binding intensity was determined as 23200.
AGGGCTCCCTTTCCTGTTATACTTCCTGTGTTACAT displayed an ETS1 binding intensity of 12500.
As for CGCCGGGCCGGAAGCCGGCGCCGGGAAGCGCGTGTG, the ETS1 binding intensity was 11200.
CTAAAGCTTCCTCCTTTTCACAAGCTTCCTGTTTCT: the ETS1 binding intensity was 3590.
AAGAAAGGCAGGAAGCATAAACAGGAAGTTAGTGGA came in with an ETS1 binding intensity of 6810.
The sequence TTTGGCTGGTATTTCCTTGCGGATGATCTTCCCAAA came in with an ETS1 binding intensity of 414.
Next, GCCACTTCCCGCAGCACCAGCGGCTCCTTCCGGTCC: 16600; CCACAGGCAGGATGCAGCATAGGAGGATGTGGGCAT: 3090.
In turn, AGCGGCGGAACCTGCCCGCCGGTGTCTTCCTGCCCA displayed an ETS1 binding intensity of 284.
Sequence ACAAAGGCAGGAAGGGGTTTGTAGGAAGTGTTCTGT registered an ETS1 binding intensity of 1210.
AATAAACAGGAAAAGTCAGCATGCAGGAAGATTACA yielded an ETS1 binding intensity of 350.
Consider GAGAAAGGAAATATGCATATGCTCCAGGATGTCTGT, for which the ETS1 binding intensity came to 589.
The sequence GGTTTAGGCTTCCGCCCCCAGCCCGGAACCTTTCTT yielded an ETS1 binding intensity of 8110.
Consider GCAAATGCTTCCTATCTATGAGACAGGAAATGCTCT, for which the ETS1 binding intensity amounted to 6150.
Sequence GAGGACAGAGCTTCCTGTGTCAGGAAGACAGGGGAG yielded an ETS1 binding intensity of 15200.
TTCTTGACTTCCTTAACCTTGCAGAGGAAGTCTGTT displayed an ETS1 binding intensity of 3300.
For AAGGCGGAGAGGAAGCGGTAGAAGGAAGCTTTCTCT, the ETS1 binding intensity was found to be 662.
CCTCAGGAAACAGGTGCTCCTGGAATGTTTCCTGCC: the ETS1 binding intensity turned out to be 846.
As to GGGCAGGCAGCCGGATTCACCGGAAAGTGACGCTTC, the ETS1 binding intensity turned out to be 388.
The sequence TCTTTGCCATTTCCCCATTGGCCGGATGGGGCTACC returned an ETS1 binding intensity of 960.
With GAGCAGGAAGGCCCTGGACCTGGCCCAGGAAACCAT, the ETS1 binding intensity is 176.
